Consider 39 variants from the RNAGym collection of RNA variant scans (doi:10.7554/elife.90254).

First the molecules themselves.
B1: LINE1-full (parent)
chain: UACGUAGGUGGUUUUCCCCUGAUAGUGCUAAGGGGGCCUGGAAGUUUGGACUGGGCAGAGCUCAACACAGCGUGGCAAAGUGGCUGUGGCUAGACUGCCUCUCUGGAUUCCUCGUCACUCAGCAGGGCAUCUCUGAGAGAAAUGCC

The source gives no read counts; variants with many changes may rest on few reads.

The variants in this series derive from B1. Put plainly: self-cleavage, relative activity (ratio to wild type); higher = more cleavage; in vitro, sequencing; the parent is a self-cleaving ribozyme.
In the case of UACGUAGGUGGUUUUCCCCUGAUAGUGCUAAGGGGGCCUGGAAGUUUGGACUGGGCAGAGCUCAACACAGCGUGGCAAAGUGGCUGUGGCUAGACAGCCUCUCUGGAUUCCUCGUCACUCAGCAGGGCACCUCUGGGAGAAAUGCC, the self-cleavage is 0.11.
The value for UACGUAGGUGGUUUUCCCCUGAUAGUGCUAAGGGGGCCUGGAAGUUUGGACUGGGCAGAGCUCAACACAGCGUGGCAAAGUGGCUGUGGCUAGACAACCUCUCUGGACUCCUCGUCACUCAGCAGGGCAUCUCUGAGAGAAAUGCC was 0.07; that for UACGUAGGUGGUUUUCCCCUGAUAGUGCUAAGGGGGCCUGGAAGUUUGGACUGGGCAGAGCUCAACACAGCGUGGCAAAGUGGCUGUGGCUAGGCUGCCUCUCUGGACUCCUCGUCACUCAGUAGGGCAUCUCUGAGAGAAAUGCC was 0.35; that for UACGUAGGUGGUUUUCCCCUGAUAGUGCUAAGGGGGCCUGGAAGUUUGGACUGGGCAGAGCUCAACACAGCGUGGCAAAGUGGCUGUGGCUAGGCUGCCUCUCUGAAUUCCUCGUCACUCAGCAGGGCAUCUCUGAGAGAAACGCC was 0.31.
The value for UACGUAGGUGGUUUUCCCCUGAUAGUGCUAAGGGGGCCUGGAAGUUUGGACUGGGCAGAGCUCAACACAGCGUGGCAAAGUGGCUGUGGCUAGACAGCCUCUCUGGAUUCCUCGUCACUCAGCAGGGCUCCUCUGAGAGAAGUGCC was 0.17.
Next, UACGUAGGUGGUUUUCCCCUGAUAGUGCUAAGGGGGCCUGGAAGUUUGGACUGGGCAGAGCUCAACACAGCGUGGCAAAGUGGCUGUGGCUAGACAGCCUCUAUGGAUUCCUCGUCACUCGGCAAGGCAUCUCUGAGAGAAAUGCC: 0.07; UACGUAGGUGGUUUUCCCCUGAUAGUGCUAAGGGGGCCUGGAAGUUUGGACUGGGCAGAGCUCAACACAGCGUGGCAAAGUGGCUGUGGCUAGAUUGCCUCUCUGGGUUCCUCGUCACUCAGCAGGGCAUCUCUGAGGGAAAUGCC: 0.36; UACGUAGGUGGUUUUCCCCUGAUAGUGCUAAGGGGGCCUGGAAGUUUGGACUGGGCAGAGCUCAACACAGCGUGGCAAAGUGGCUGUGGCUAGACAGCCUCUCUGGAUUCCUCGUCGCUCAGCAGGGCAUCUCUGUGAGAAAUGCC: 0.07.
For UACGUAGGUGGUUUUCCCCUGAUAGUGCUAAGGGGGCCUGGAAGUUUGGACUGGGCAGAGCUCAACACAGCGUGGCAAAGUGGCUGUGGCUAGACAGCCUCUCUGGAUUCCUCGUCGCUCAGCAGGGCAUCUCUGAGAGAAAUGUC, the self-cleavage is 0.09.
Take UACGUAGGUGGUUUUCCCCUGAUAGUGCUAAGGGGGCCUGGAAGUUUGGACUGGGCAGAGCUCAACACAGCGUGGCAAAGUGGCUGUGGCUAGACCGCCUCUCUGGAUUCCUCGUCACUCAGCAGAGCAUCUCUGAGAGAAGUGCC: the self-cleavage worked out at 0.14.
The value for UACGUAGGUGGUUUUCCCCUGAUAGUGCUAAGGGGGCCUGGAAGUUUGGACUGGGCAGAGCUCAACACAGCGUGGCAAAGUGGCUGUGGCUAGUCUGCCUCUCUGGAUUCCACGUCACUCAGCAGGGCAUCCCUGAGAGAAAUGCC was 0.37.
For the variant UACGUAGGUGGUUUUCCCCUGAUAGUGCUAAGGGGGCCUGGAAGUUUGGACUGGGCAGAGCUCAACACAGCGUGGCAAAGUGGCUGUGGCUAGGCUGCCUCUCUGGAUUCCUCGUCACACAGCAGGGCACCUCUGAGAGAAAUGCC, the self-cleavage was 0.
The value for UACGUAGGUGGUUUUCCCCUGAUAGUGCUAAGGGGGCCUGGAAGUUUGGACUGGGCAGAGCUCAACACAGCGUGGCAAAGUGGCUGUGGCUAGAAUGCCUCUCUGGAUCCCUCGUCACUCAGCAGGGCAUCUCUGAGAGAAAAGCC was 0.07.
Next, UACGUAGGUGGUUUUCCCCUGAUAGUGCUAAGGGGGCCUGGAAGUUUGGACUGGGCAGAGCUCAACACAGCGUGGCAAAGUGGCUGUGGCUAGACCGCCUCCCUGGAUUCCUCGUCACUCAGCAGGGCAUCUCUGUGAGAAAUGCC: 0.42; UACGUAGGUGGUUUUCCCCUGAUAGUGCUAAGGGGGCCUGGAAGUUUGGACUGGGCAGAGCUCAACACAGCGUGGCAAAGUGGCUGUGGCUAGACAGCCUCUCUGGAUUCCUCGUCACUCAGCAGGGCAUCUCUGAGGGAAACGCC: 0.09.
Next, UACGUAGGUGGUUUUCCCCUGAUAGUGCUAAGGGGGCCUGGAAGUUUGGACUGGGCAGAGCUCAACACAGCGUGGCAAAGUGGCUGUGGCUAGACAGCCUCUCCGGAUUCCUCGUCACUCAGCAGGGCAUCUCUGAGAGGAAUGCC: 0.02; UACGUAGGUGGUUUUCCCCUGAUAGUGCUAAGGGGGCCUGGAAGUUUGGACUGGGCAGAGCUCAACACAGCGUGGCAAAGUGGCUGUGGCUAGUCUGCCUCUCUGGAUUCCUCUUCACUCAGCAGGGCGUCUCUGAGAGAAAUGCC: 0.32.
Regarding UACGUAGGUGGUUUUCCCCUGAUAGUGCUAAGGGGGCCUGGAAGUUUGGACUGGGCAGAGCUCAACACAGCGUGGCAAAGUGGCUGUGGCUAGACCGCCACCCUGGAUUCCUCGUCACUCAGCAGGGCAUCUCUGAGAGAAAUGCC, the self-cleavage turned out to be 0.95.
With UACGUAGGUGGUUUUCCCCUGAUAGUGCUAAGGGGGCCUGGAAGUUUGGACUGGGCAGAGCUCAACACAGCGUGGCAAAGUGGCUGUGGCUAGACAGCCUCUCUGGACUCCUCGUCACUCAGCAGGGUAUCUCUGAGAGAAAUGCC, the self-cleavage came out at 0.08.
For the variant UACGUAGGUGGUUUUCCCCUGAUAGUGCUAAGGGGGCCUGGAAGUUUGGACUGGGCAGAGCUCAACACAGCGUGGCAAAGUGGCUGUGGCUAGGCUGCCUCUCUGGACUCCUCGUCACUCAGCAGGGCAUCUCUGAGAGAGAUGCC, the self-cleavage worked out at 0.
Next, UACGUAGGUGGUUUUCCCCUGAUAGUGCUAAGGGGGCCUGGAAGUUUGGACUGGGCAGAGCUCAACACAGCGUGGCAAAGUGGCUGUGGCUAGACCGCCUCUCUGGAUUCCUCGUCACUCAGCAGGGCAUCUCUGAGAGGAGUGCC: 0.13.
As to UACGUAGGUGGUUUUCCCCUGAUAGUGCUAAGGGGGCCUGGAAGUUUGGACUGGGCAGAGCUCAACACAGCGUGGCAAAGUGGCUGUGGCUAGGCUGCCUCUCCGGAUUCCUCGUCACUCAGCAGGGCAACUCUGAGAGAAAUGCC, the self-cleavage worked out at 0.18.
The value for UACGUAGGUGGUUUUCCCCUGAUAGUGCUAAGGGGGCCUGGAAGUUUGGACUGGGCAGAGCUCAACACAGCGUGGCAAAGUGGCUGUGGCUAGACCGCCUCCCUGGAUUCCUCGUCACACAGCAGGGCAUCUCUGAGAGAAAUGCC was 0; that for UACGUAGGUGGUUUUCCCCUGAUAGUGCUAAGGGGGCCUGGAAGUUUGGACUGGGCAGAGCUCAACACAGCGUGGCAAAGUGGCUGUGGCUAGACCGCCCCUCUGGAUUCCUCGUCACUCAGCAGGGCAUCUCUGAGAUAAAUGCC was 0; that for UACGUAGGUGGUUUUCCCCUGAUAGUGCUAAGGGGGCCUGGAAGUUUGGACUGGGCAGAGCUCAACACAGCGUGGCAAAGUGGCUGUGGCUAGACAGCCUCUCUGGAUUCCUCGUCACUCAGCAGGGCAACUCUGGGAGAAAUGCC was 0.04.
The value for UACGUAGGUGGUUUUCCCCUGAUAGUGCUAAGGGGGCCUGGAAGUUUGGACUGGGCAGAGCUCAACACAGCGUGGCAAAGUGGCUGUGGCUAGACAGCCUCUCUGGAUUCCUCGUCACUCAGCAGGGCAUGUUUGAGAGAAAUGCC was 0.03; that for UACGUAGGUGGUUUUCCCCUGAUAGUGCUAAGGGGGCCUGGAAGUUUGGACUGGGCAGAGCUCAACACAGCGUGGCAAAGUGGCUGUGGCUAGGCUGCCUCUCUGGACUCCUCGUCACUCAGCAGGGCACCUCUGAGAGAAAUGCC was 0; that for UACGUAGGUGGUUUUCCCCUGAUAGUGCUAAGGGGGCCUGGAAGUUUGGACUGGGCAGAGCUCAACACAGCGUGGCAAAGUGGCUGUGGCUAGUCUGCCUCUCUGGAUCCCUCGUCACUCAGCAGGGCAUCUCUGUGAGAAAUGCC was 0.32.
The value for UACGUAGGUGGUUUUCCCCUGAUAGUGCUAAGGGGGCCUGGAAGUUUGGACUGGGCAGAGCUCAACACAGCGUGGCAAAGUGGCUGUGGCUAGGCUGCCUCUCUGGAUUCCUCGUCACUCAGCAGGGCAUUUCUGAGAGGAAUGCC was 0.22; that for UACGUAGGUGGUUUUCCCCUGAUAGUGCUAAGGGGGCCUGGAAGUUUGGACUGGGCAGAGCUCAACACAGCGUGGCAAAGUGGCUGUGGCUAGGCUGCCUCUCUGGAUUCCUUGUCACUCAGCAGGGCAUCUCUGAGGGAAAUGCC was 0.22.
Consider UACGUAGGUGGUUUUCCCCUGAUAGUGCUAAGGGGGCCUGGAAGUUUGGACUGGGCAGAGCUCAACACAGCGUGGCAAAGUGGCUGUGGCUAGACAGCCUCUCCGGGUUCCUCGUCACUCAGCGGGGCAUCUCUGAGAGAAAUGCC, for which the self-cleavage turned out to be 0.
Regarding UACGUAGGUGGUUUUCCCCUGAUAGUGCUAAGGGGGCCUGGAAGUUUGGACUGGGCAGAGCUCAACACAGCGUGGCAAAGUGGCUGUGGCUAGGCUGCCUCUCUGGAUUCCUCGUCACCCAGCAGGGCAACUCUGAGAGAAAUGCC, the self-cleavage was 0.36.
Next, UACGUAGGUGGUUUUCCCCUGAUAGUGCUAAGGGGGCCUGGAAGUUUGGACUGGGCAGAGCUCAACACAGCGUGGCAAAGUGGCUGUGGCUAGUCCGCCUCUCUGGAUUCCCCGUCACUCAGCAGGGCAUCUCUGAGAGAAAUGCC: 0; UACGUAGGUGGUUUUCCCCUGAUAGUGCUAAGGGGGCCUGGAAGUUUGGACUGGGCAGAGCUCAACACAGCGUGGCAAAGUGGCUGUGGCUAGGCUGCCUCUCUGGAUUCCUCGUCACUCAGCAGGGCAUUCCUGAGAGAAAUGCC: 0.56.
The value for UACGUAGGUGGUUUUCCCCUGAUAGUGCUAAGGGGGCCUGGAAGUUUGGACUGGGCAGAGCUCAACACAGCGUGGCAAAGUGGCUGUGGCUAGACAGCCUCUCUGGAUUCCUCGUCACUCAGCCGGGCAUCCCUGAGAGAAAUGCC was 0.11.
The value for UACGUAGGUGGUUUUCCCCUGAUAGUGCUAAGGGGGCCUGGAAGUUUGGACUGGGCAGAGCUCAACACAGCGUGGCAAAGUGGCUGUGGCUAGUCUGCCUCUCUGGAUUCCUUGUCACUCGGCAGGGCAUCUCUGAGGGAAAUGCC was 0.36; that for UACGUAGGUGGUUUUCCCCUGAUAGUGCUAAGGGGGCCUGGAAGUUUGGACUGGGCAGAGCUCAACACAGCGUGGCAAAGUGGCUGUGGCUAGUCUGCCUCUCUGGAUACCUCGUCACUCAGCAGGGCAUCUCUGAGAGGAAUGCC was 0.36; that for UACGUAGGUGGUUUUCCCCUGAUAGUGCUAAGGGGGCCUGGAAGUUUGGACUGGGCAGAGCUCAACACAGCGUGGCAAAGUGGCUGUGGCUAGGCUACCUCUCCGGAUUCCUCGUCACUCAGCAGGGCAUCUCUGCGAGGAAUGCC was 0.11.
Turning to UACGUAGGUGGUUUUCCCCUGAUAGUGCUAAGGGGGCCUGGAAGUUUGGACUGGGCAGAGCUCAACACAGCGUGGCAAAGUGGCUGUGGCUAGACAGCCUCUCUGGACUCCUCGUCACUCAGCAGGGCAUCUCUGAGAGAGAUGCC, the self-cleavage stood at 0.08.
